Results from PubChem BioAssay (NCATS).
Inconclusive means that the source gave no clear call. Such entries were picked first, then a sample of the others. For some assays here: Potencies of inconclusive entries are left out as doubtful fits. Active and inactive are the calls of the source. Unless noted, calls come from the whole dose curve; as a rule, active = well fitted curve in the direction sought with a large enough effect; inconclusive = small, poorly fitted or top-dose-only effect, or another doubt; inactive = no such curve, though single readings can be large; an effect the other way counts as inactive or inconclusive.

Assays:
[1] = target: Fructose-bisphosphate aldolase (Giardia intestinalis (strain ATCC 50803 / WB clone C6)) (UniProt A8B2U2); test: qHTS Assay for Inhibitors of Fructose-1,6-bisphosphate Aldolase from Giardia Lamblia: Primary screen confirmation (AID 2787); conditions: purified Giardia aldolase enzyme activity; series mostly up to 57.5 µM; note: potency is the fitted concentration of half-maximal effect; nearly all actives have a fitted effect of over 45% in size
UniProt A8B2U2, sequence (A8B2U2 whole entry, looked up): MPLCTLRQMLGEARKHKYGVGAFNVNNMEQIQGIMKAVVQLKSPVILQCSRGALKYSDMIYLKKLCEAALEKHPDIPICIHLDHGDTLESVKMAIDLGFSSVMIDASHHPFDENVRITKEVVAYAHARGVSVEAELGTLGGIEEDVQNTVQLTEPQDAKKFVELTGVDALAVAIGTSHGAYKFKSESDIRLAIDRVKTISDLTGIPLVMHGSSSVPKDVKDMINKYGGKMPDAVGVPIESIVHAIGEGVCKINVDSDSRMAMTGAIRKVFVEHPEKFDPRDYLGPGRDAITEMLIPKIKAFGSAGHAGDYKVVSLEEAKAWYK
In short: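 FBPA (40 nM in enzyme reagent, with 30 uM ZnCl2) was preincubated 10 min at RT with compound up to 57.5 uM final. Substrate plus coupled detection system was then added, and fluorescence (525/598 nm) was read after 20 min at RT.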

[2] = qHTS Assay for Inhibitors of Fructose-1,6-bisphosphate Aldolase from Giardia Lamblia: Coupling assay counterscreen confirmation (AID 2795); conditions: GAPDH coupling enzyme counterscreen, biochemical; series mostly up to 57.5 µM; note: potency is the fitted concentration of half-maximal effect; nearly all actives have a fitted effect of over 55% in size
In short: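 Primary-screen hits were tested against the coupling system alone (GAPDH-based, glyceraldehyde-3-phosphate), without aldolase. Compounds at up to 57.5 uM final were preincubated 10 min at RT with coupling enzymes, then substrate/detection mix (AmpLite Red) was added for 20 min at RT; fluorescence read at 525/598 nm.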

[3] = target: Fructose-bisphosphate aldolase A (Oryctolagus cuniculus) (UniProt P00883); test: qHTS Assay for Inhibitors of Fructose-1,6-bisphosphate Aldolase from Giardia Lamblia: Rabbit FBPA Selectivity (AID 2794); conditions: Rabbit muscle FBPA enzyme inhibition, selectivity counter-screen; series mostly up to 57.5 µM; note: potency is the fitted concentration of half-maximal effect; nearly all actives have a fitted effect of over 60% in size
UniProt P00883, sequence (P00883 whole entry, looked up): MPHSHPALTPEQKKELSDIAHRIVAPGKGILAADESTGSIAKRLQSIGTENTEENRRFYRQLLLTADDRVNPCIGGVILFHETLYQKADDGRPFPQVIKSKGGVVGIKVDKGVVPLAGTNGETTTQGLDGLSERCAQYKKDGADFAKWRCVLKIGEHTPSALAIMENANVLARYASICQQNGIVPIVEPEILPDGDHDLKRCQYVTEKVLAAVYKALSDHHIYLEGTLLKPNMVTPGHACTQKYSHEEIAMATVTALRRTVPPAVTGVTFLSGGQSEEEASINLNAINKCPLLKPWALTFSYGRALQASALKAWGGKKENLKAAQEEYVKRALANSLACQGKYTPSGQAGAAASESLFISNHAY
In short: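 Selectivity counter-screen using rabbit Class I FBPA in a coupled enzyme system with fluorescent detection (ex 525 nm/em 598 nm). Compounds at up to 57.5 uM final were preincubated 10 min at RT with coupling enzymes, then substrate/detection reagent added for 20 min at RT.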

[4] = qHTS for Inhibitors of Plasmodium falciparum (7G8) proliferation (AID 504316);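 note: 0% = DMSO vehicle and -100% = 0.29 µM artemisinin full kill; nearly all actives have a fitted effect of over 65% in size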; conditions: P. falciparum 7G8 in erythrocytes, SYBR Green DNA, 72 h; activity change, negative = inhibition: at 6.7 µM (top of the series)
In short: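 Parasite growth measured as SYBR Green DNA fluorescence (ex 485, em 535 nm) after overnight lysis following 72 h culture at 37 °C, 0.3% parasitemia, 2.5% hematocrit. Values normalized against DMSO and 0.29 uM artemisinin controls, with plate-stack correction.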

[5] = NFAT Signaling Pathway (AID 444; active = well fitted curve in either direction with a large enough effect, not every such curve was filed as active; inconclusive = small, poorly fitted or top-dose-only effect, or another doubt;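 note: carbachol stimulus at about its EC50 of 1 µM final; % is set by controls: 0 for no effect and ±100 for the full control effect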); conditions: Jurkat NFAT-bla M1, carbachol, beta-lactamase ratio, 5 h
In short: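 Read-out: CCF4 FRET ratio (460 nm/530 nm) after 1 h RT dye loading, used for %activity and AC50 from titration series. Cells: Jurkat NFAT-β-lactamase/M1 line, treated with compound plus 1 uM carbachol for 5 h, 37 °C.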

[6] = qHTS Assay for Identification of Small Molecule Antagonists for NFkB Signaling Pathway (AID 895; active = well fitted inhibition curve with a large enough effect in the signal ratio, with a control signal flat, not every such curve was filed as active; inconclusive = small, poorly fitted or top-dose-only effect, or effect the other way, or a change in a side signal; the % refers to the signal ratio; note: % is set by controls: 0 for no effect and ±100 for the full control effect); conditions: NFkB beta-lactamase reporter cells, FRET ratio 460/530, stimulated with 10 pM TNF alpha; activity change, negative = inhibition: at 38.3 µM (top of the series)
In short: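 Beta-lactamase reporter read-out (460 and 530 nm emission ratio, 405 nm excitation, 2 hrs substrate loading RT) after 5 hr stimulation with 10 pM TNF alpha in compound-treated NFkB-bla ME-180 cells in low-serum medium.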

[7] = qHTS Assay for Identification of Small Molecule Agonists for Thrombopoietin (TPO) Signaling Pathway (AID 917); conditions: TPO signaling pathway reporter cells, agonist qHTS, stimulated with TPO at its EC50; activity, positive = activation: at 38.5 µM (top of the series); note: potency is the fitted concentration of half-maximal effect
In short: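 Stimulation at the TPO EC50 (26 pM final) was used to detect activators. Ba/F3 mouse cells bearing human TPO receptor and a luciferase reporter under the Glycoprotein IIb promoter were exposed to compounds for 24 hrs at 37 C.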

[8] = S16 Schwann cell viability assay (CellTiter-Glo assay) (AID 624031); conditions: S16 rat Schwann cells viability, 24 h; series mostly up to 57.5 µM;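 note: cellular ATP luminescence as a viability measure; potency is the fitted concentration of half-maximal effect; nearly all actives have a fitted effect of over 70% in size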
In short: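 Native S16 rat Schwann cells, 500-750 cells/well in DMEM with 10% FBS, dosed with compound after overnight culture and incubated 24h at 37 degree Celsius/5% CO2. Viability by CellTiter-Glo luminescence; % activity normalized to no-cell wells and DMSO-treated cells.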

[9] = qHTS profiling for inhibitors of Plasmodium falciparum proliferation (AID 504749); note: nearly all actives have a fitted effect of over 60% in size; note: potency is the fitted concentration of half-maximal effect;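 for activity, negative = inhibition: 0% = DMSO vehicle and full inhibition = artemisinin control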; conditions: P. falciparum in erythrocytes, SYBR Green DNA, 72 h; Potency: parasite line B unless noted; series mostly up to 28.7 µM
In short: (§1)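 SYBR Green fluorescence of parasite DNA, read after lysis and overnight dark incubation, measured growth over 72 h in erythrocyte culture at 0.3% parasitemia and 2.5% hematocrit. Data normalised to DMSO and 0.29 uM artemisinin, with plate-drift correction.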

7G8 = test: as above; conditions: P. falciparum in erythrocytes, SYBR Green DNA, 72 h; series mostly up to 28.7 µM
In short: as §1

PC26 = test: as above; conditions: P. falciparum in erythrocytes, SYBR Green DNA, 72 h; activity, negative = inhibition: at 28.7 µM (top of the series)
In short: as §1

PC49 = test: as above; conditions: P. falciparum in erythrocytes, SYBR Green DNA, 72 h; series mostly up to 28.7 µM
In short: as §1

TAB109 = test: as above; conditions: P. falciparum in erythrocytes, SYBR Green DNA, 72 h; series mostly up to 28.7 µM
In short: as §1

W2 = test: as above; conditions: P. falciparum in erythrocytes, SYBR Green DNA, 72 h; series mostly up to 28.7 µM
In short: as §1
Tags give direction and shape of the fitted curve.

Question: What does the source list for `Cc1c(C(=O)O)c(C(=O)O)nc2ccc(N3CCOCC3)cc12`?
Answer: Potency [1]: inconclusive [inhibitor, partial curve]; Potency [2]: inconclusive [inhibitor, partial curve]

Question: Which results are given for `COC(=O)Nc1sc2c(c1C(N)=O)CCC(C)C2` (configuration not stated)?
Answer: Potency [1]: inconclusive [inhibitor, partial curve]; Potency [3]: inconclusive [inhibitor, single point]; Potency [2]: inconclusive [inhibitor, single point]

Question: What does the source list for `Cc1ccc(S(=O)(=O)Nc2cc(C)cn(Cc3ccc(F)cc3)c2=O)cc1`?
Answer: Potency [1]: inconclusive [inhibitor, partial curve]; Potency [3]: inconclusive [inhibitor, partial curve]; Potency [2]: active: 25.1 µM

Question: What does the source list for `COC/C=C/C1=CC2=CC(=O)C(C)(OC(=O)c3cnc4ccccc4n3)C(=O)C2=CN1Cc1ccccc1` (configuration not stated)?
Answer: Potency [1]: inconclusive [inhibitor, full curve]; Potency [3]: inconclusive [inhibitor, partial curve]; Potency [4]: inactive

Question: Which activity change, negative = inhibition ([5]; at 17.2 µM (top of the series)) does the source give for `N[C@@H](CO)C(=O)NNCc1ccc(O)c(O)c1O` here?
Answer: inactive: -8.03%

Question: What about the activity change, negative = inhibition ([5]; at 38 µM (top of the series)) of the same compound?
Answer: inactive: -7.62%

Question: And the Potency [6]?
Answer: inactive

Question: What about the Potency [7] of the same compound?
Answer: inconclusive [inhibitor, single point]

Question: What about the Potency [1] of the same compound?
Answer: inconclusive [inhibitor, full curve]

Question: And the Potency [3]?
Answer: inconclusive [inhibitor, partial curve]

Question: What about the Potency [2] of the same compound?
Answer: inconclusive [inhibitor, partial curve]

Question: And the Potency [8]?
Answer: inconclusive [cytotoxic, partial curve, poor fit]

Question: And the Potency [9]?
Answer: inactive

Question: And the Potency (7G8)?
Answer: inactive

Question: And the Potency (PC26)?
Answer: inactive

Question: What about the Potency (PC49) of the same compound?
Answer: inactive

Question: And the Potency (TAB109)?
Answer: inactive

Question: What about the Potency (W2) of the same compound?
Answer: inconclusive [inhibitor, single point]

Question: With `Cc1ccc(O)c(N=Cc2cccs2)c1` as the compound, how does the Potency [1] read?
Answer: active: 35.5 µM

Question: And the Potency [3]?
Answer: active: 39.8 µM

Question: What about the Potency [2] of the same compound?
Answer: active: 50.1 µM

Question: With `COc1ccc(CN(C)S(=O)(=O)c2nnc(NC(=O)c3ccc(C)cc3)s2)cc1OC` as the compound, how does the Potency [1] read?
Answer: inconclusive [inhibitor, partial curve]

Question: And the Potency [3]?
Answer: inconclusive [inhibitor, partial curve]

Question: What about the Potency [2] of the same compound?
Answer: active: 20 µM

Question: For `COc1nc(N/N=C/c2ccc(-c3ccccc3[N+](=O)[O-])o2)nc(N2CCOCC2)n1`, which Potency [1] is on record?
Answer: inconclusive [inhibitor, partial curve]

Question: And the Potency [3]?
Answer: inconclusive [inhibitor, partial curve]

Question: What about the Potency [2] of the same compound?
Answer: active: 39.8 µM

Question: For `COc1cc(CNc2ccc(N3CCCC3)cc2)cc(Cl)c1OC`, which Potency [1] is on record?
Answer: active: 17.8 µM

Question: What about the Potency [2] of the same compound?
Answer: inconclusive [inhibitor, partial curve]

Question: Which Potency [1] does the source give for `O=c1cc(O)c2sc(Nc3ccc(F)c(Cl)c3)nc2[nH]1` here?
Answer: inconclusive [inhibitor, partial curve]

Question: What about the Potency [3] of the same compound?
Answer: inconclusive [inhibitor, partial curve]

Question: What about the Potency [2] of the same compound?
Answer: inconclusive [inhibitor, single point]

Question: What does the source list for `Cc1nnc(N/N=C\c2ccc(-c3cccc(C(=O)O)c3)o2)n1N`?
Answer: Potency [1]: inconclusive [inhibitor, partial curve]; Potency [3]: inconclusive [inhibitor, partial curve]; Potency [2]: inconclusive [inhibitor, single point]

Question: Which Potency [1] does the source give for `O=C(N/N=C/C=C/c1ccco1)c1cnccn1` here?
Answer: inconclusive [inhibitor, single point]

Question: What about the Potency [2] of the same compound?
Answer: inconclusive [inhibitor, partial curve]

Question: What does the source list for `CC1=C(C#N)C(=O)N(C2CCS(=O)(=O)C2)C(=O)/C1=C\c1ccco1` (configuration not stated)?
Answer: Potency [1]: inconclusive [inhibitor, partial curve]; Potency [3]: inconclusive [inhibitor, partial curve]; Potency [2]: active: 20.6 µM
